The supplement of paper PMC11417369
± gives the standard deviation of the averaged measurements. Some of the results follow.

The sequences below were run on PfAP2-EXP AP2 domain (GST-tagged) (assay: gcPBM binding intensity (ln(normalized median fluorescence intensity)); higher = stronger DNA binding).
Procedure, shortened: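 DNA-binding domains from P. falciparum, fused to GST and produced in E. coli, were put on an Agilent 4 × 180k double-stranded probe array for 1 h in 1× PBS holding 1% milk, 0.2 mg/ml BSA, 0.5% salmon testes DNA and 0.03% Triton X-100. Probes were primer-extended, 36 bp long and drawn from intergenic genomic regions, with negative controls included. After Alexa488 anti-GST antibody detection and a 488 nm scan, binding intensity was set as the highest Masliner-normalised natural-log median intensity across replicate spots of either probe orientation.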

Sequence	gcPBM binding intensity (ln)
ATATATATATATTTATGTACTTAATAATTTATTCAC [XGTACX_site7301]	9.79 ± 0.28
TGCAGTCTGGAGAAAAGTACATAGTATCTGGTAACC [XGTACX_site2019]	8.7 ± 0.42
TTTTTATTACATAATTAAAAAAAATAATAAAATAAA [XGTACX_negctrl_site249]	8.22 ± 0.41
AATTTAAAATAATATTGTACTTAGATATAAATATGA [XGTACX_site4198]	8.2 ± 0.4
TAAAAAATATAAACTGCACACACAAAAAAAAAAGAG [CACACA_site8379]	9.1 ± 0.29
TACATACATACATACACACACACATATATATACATA [CACACA_site853]	9.19 ± 0.18
ATATCATTAAAAGGATGTACATATGTGTATACAATA [XGTACX_site871]	9.05 ± 0.45
TAATATCTAAAAAATATATTTTTTATTTTTTATTAA [CACACA_negctrl_site510]	8.02 ± 0.47
ATGGTACACAAATATACATGCAATAATAAAAAAAAA [TGCATGCA_site879]	9.15 ± 0.36
CATTAATATATATATACATGCACGTTTTAAAAAAAA [TGCATGCA_site875]	8.84 ± 0.28
TAATTATGCAGACACACACACACACGCAACTAAAAA [CACACA_site7253]	8.74 ± 0.47
ATGGGAATATAATTATGTACATATAAAAATTATAAA [XGTACX_site5336]	8.62 ± 0.34
AAAAAATATTTTTACAGTACATATATATAAAATGTT [XGTACX_site3215]	8.63 ± 0.34
TCATTTCACGGACACACACACACAATATATTTCCTT [CACACA_site6023]	8.96 ± 0.45
TAACAAAGGAAAGATATACACACGTATGCATGATAA [CACACA_site2520]	8.91 ± 0.44
TGTATTAACAAAAAGGTGCGGATATATATAAAAAAT [GTGCAC_site9473]	9.37 ± 0.63
TTAATATATATATATATATATATATTTTTATTTTTT [CACACA_negctrl_site763]	8.38 ± 0.092
AAAATGTTATTGGAAAGTACAAAAAAAATTATATAA [XGTACX_site4074]	8.65 ± 0.37
CATATATAGATATATACACACATATATAAATAAATA [CACACA_site6759]	8.43 ± 0.35
ATAAAACGTACAATGGTGCATATAAATAATATATAT [GTGCAC_site9960]	9.15 ± 0.028
TATGTATATTCTTTCAGTACACATAATGTTGTCATA [XGTACX_site8845]	8.69 ± 0.3
TTCAATATACATATGTGTACTAAAATAAATAGAAAA [XGTACX_site5708]	8.8 ± 0.37

Sequence	gcPBM binding intensity (ln)
ATTACAACATTTTATACACACGTGATTATTAATTTT [CACACA_site5581]	8.68 ± 0.38
TAAATATATTTATACACACACACCAAAGCAATAGAT [CACACA_site7393]	9.12 ± 0.35
GGATTCAAAAAAAAAAATAAAAGTAAATAATAAATA [TGCATGCA_negctrl_site348]	8.27 ± 0.42
TTTATGAAGTAAAAATATAAATTCACAAAGTTAAAA [CACACA_negctrl_site1476]	8.37 ± 0.39
AAGAACAGAACGTACACACACATATTTATATTTATA [CACACA_site7594]	8.48 ± 0.45
TATATTTCAGGGGGGAGTACAAATTTTTTTATATAA [XGTACX_site1600]	10.9 ± 0.38
TAAGGAAAAAAAATATGTACTTATAGTTCCTTCTTT [XGTACX_site2202]	8.27 ± 0.42
ATTTGTAATATTAAATGTACAGGTAAGAAATATCAG [XGTACX_site1562]	9.01 ± 0.44
TTATATATATATATATATATATATATATATATAAAT [GTGCAC_negctrl_site126]	8.97 ± 0.014
CATTATGTACAAAAAGTGCAATATATATTAACACTG	8.79 ± 0.16
AACAAAATAAGAAAACGTACAAATGTTTCAAATTCT [XGTACX_site1544]	8.62 ± 0.56
TTTTCAAAGATATATACACACATGCATATTACGGTG [CACACA_site6505]	8.7 ± 0.45
TTTTTGAGTGCACATACACACAGACATACATTTAAA [CACACA_site5813]	9.28 ± 0.22
TTAATAAATATCAATACACACACACTAATGTGAATA [CACACA_site9254]	8.26 ± 0.48
TATCCATATTTGTTCACACACACACCCATTTATATA [CACACA_site3571]	9.01 ± 0.52
ATTTTTATGTTGAAAAGTACTTGAATCCCATGTAAC [XGTACX_site4453]	8.62 ± 0.36
TATTTATTTATTTAGTGTACATTTATATTTGTTCAT [XGTACX_site7575]	8.74 ± 0.34
TTCTTTTTTTTTAAAACAAACAAACAAACAAACAAA [CACACA_negctrl_site832]	8.53 ± 0.4
TTAATCTTTCCTACATGTACACACAGAAAAAAAAAA [XGTACX_site5213]	8.52 ± 0.35
TTGTTCTTTCAAATTATACACACCAAAAAAAAAAAA [CACACA_site3070]	8.53 ± 0.4
TACAAATGAGAAATATGTACATAAAAAAAAAAAAAT [XGTACX_site801]	8.77 ± 0.47
AATATAAATAAAAAATTGATTTCTTTAAAAAGGTAT [CACACA_negctrl_site1038]	8.29 ± 0.54

Sequence	gcPBM binding intensity (ln)
TAATCATAAAAAAATACACACATATATAATATATAT [CACACA_site1983]	8.51 ± 0.3
ATACAAAATCTAATTTGTACACAATGTTTGATTTTT [XGTACX_site5438]	8.34 ± 0.54
ATATAACATGGACACACACACATATATATATATTAT [CACACA_site6135]	8.75 ± 0.42
ATACAAATTAAGCCTCAAGTTCTTTTTTTTAACATA [XGTACX_negctrl_site580]	8.21 ± 0.4
GGTGCACCCATATACACACACAAATACAATGATAAA [CACACA_site1132]	8.88 ± 0.19
GTGAAATTATATTTTTGTACATATATTATATATTAT [XGTACX_site3387]	8.52 ± 0.32
AAAAAAAAGAATTATTGTACAAAAGAACAATAAATA [XGTACX_site1368]	8.42 ± 0.4
ATCGAAGGGGTACAAAATAAAAATAATTCTTTCAAA [TGCATGCA_negctrl_site373]	8.51 ± 0.47
GTATATATCTAAAAATATATATATATATATATATAT [CACACA_negctrl_site788]	10.1 ± 0.4
TATAAATAAATATGGAGTACCAAAAAAATTATAAAA [XGTACX_site7581]	8.6 ± 0.33
AAGTGTTATGAAATATGTACACATATATTATATATA [XGTACX_site6022]	8.51 ± 0.23
TTTTTATTAAATAAAGCACACACAACAACTTTTCAC [CACACA_site9372]	8.94 ± 0.36
AAATATAAAAAAAAAAGTACTTTGTTACTTTTCTAT [XGTACX_site6034]	8.04 ± 0.36
AACTGCAAAAAAAGACGTACAAATTATTAATTGCAA [XGTACX_site8929]	8.7 ± 0.53
AAAATAAATATAACCACACACGAAAGAGAGAGAAAA [CACACA_site3272]	8.88 ± 0.46
TAACCATAAGAAGATTGTACATAATAAAAGTATTCT [XGTACX_site1117]	8.64 ± 0.58
ATTTAAAATGGTTATACACACATAAAAGGGGAAATG [CACACA_site2649]	8.95 ± 0.57
ATATATATATATATATGTACATACCCAATTGTGTAA [XGTACX_site6352]	10.1 ± 0.59
TACAGACATACATACACACATACATATATATATATA [CACACA_site1940]	10.1 ± 0.11
CATAAAAATGAACATACACACATATATATATATATA [CACACA_site2498]	10.1 ± 0.43
TTGCTTTCTTTTTTTTGTACTCATATCTACTATCAT [XGTACX_site7711]	9.04 ± 0.46
CGAGCAAGACGGGGTGCACACAAACTAATATGCCGA [CACACA_site7936]	9.85 ± 0.97

Sequence	gcPBM binding intensity (ln)
ATTATTATGTAGAAGGTGCTATGTTCTATAAATATA [GTGCAC_site9545]	8.42 ± 0.24
TACCTTTATTAATAAAGTACATTAATCTGTGTATAC [XGTACX_site8720]	8.46 ± 0.36
TTTTTGTTAAAATAAATATTATAAATATATTAATAT [TGCATGCA_negctrl_site239]	7.92 ± 0.27
TACATATTTTATAGCACACAAATAATAATATGTAGT [CACACA_site688]	8.68 ± 0.31
AAAAAAAAAAAAATGTGGACACAATTGTGTGTTTGT [XGTACX_site3563]	9.18 ± 0.8
GTTGTGGAAAGAAGTTGTACATAAAATATTATATAA [XGTACX_site4352]	8.63 ± 0.42
AGGCCTTTTAGTATTTCACACACGTAAATGCGTATA [CACACA_site1108]	8.49 ± 0.41
TTTTTTCTTTTTTTTTTTAATTATAAACATGATATT [GTGCAC_negctrl_site144]	8.26 ± 0.47
TAAATATATATAACATGTACATAAAATATATATATA [XGTACX_site4431]	9.53 ± 0.13
TATCTTCATTGTTGACGTACAGTATTTCTAAACGTT [XGTACX_site3439]	8.82 ± 0.31
CTATGAACACACACATGTACATATATTAACTCGCTA [XGTACX_site8805]	8.57 ± 0.31
CCACTTGTGTAATGTTGTACAAAAATAAATATATTT [XGTACX_site4598]	8.6 ± 0.4
ATAATTAAAAATAATATATATATAATATGATATTAT [GTGCAC_negctrl_site194]	8.09 ± 0.35
TACACATACAGACATACACACATACACATATACACA [CACACA_site6918]	8.66 ± 0.38
AAAAAAAAAAAAAACACACACACACGCACATATACA [CACACA_site7288]	8.71 ± 0.47
TATATTAAACAATATACACACATTAATGTAGACATA [CACACA_site8889]	8.68 ± 0.47
TTATAATATATATCTGCATGTTGCTTTGGGGCTTTA [TGCATGCA_site712]	9.29 ± 0.64
GAAAATTCTTAAGGCACACACATATAAGATATATAC [CACACA_site6410]	8.7 ± 0.28
TTTCAGACAAAAAAAAAAAAAAAAAAGAGGAGAATA [CACACA_negctrl_site254]	8.29 ± 0.58
TTTAAGCAAAGACACACACACATATTTATATTTATA [CACACA_site6295]	8.46 ± 0.42
AAACATTTATACAAAGCACACAATTTTTAACTTTTA [CACACA_site2627]	8.25 ± 0.34
AACCTTTTAAGAGTTGCACACGTACAAAAAAAAAAA [CACACA_site9159]	8.63 ± 0.36
